Laboratory results taken from US9000023B2, “Disubstituted phthalazine hedgehog pathway antagonists” (Eli Lilly and Company, priority 2009, dated 2015).

System: CYP3A
Conditions: human liver microsomes; kinact and KI cannot be determined

Compound: CN(C(=O)c1ccc(F)cc1C(F)(F)F)C1CCN(c2nnc(-c3ccnn3C)c3ccccc23)CC1.Cl [Example 1a, 4-Fluoro-N-methyl-N-(1-(4-(1-methyl-1H-pyrazol-5-yl)phthalazin-1-yl)piperidin-4-yl)-2-(trifluoromethyl)benzamide hydrochloride]
- mechanism based inhibitor of CYP3A4 (conclusion): not a mechanism based inhibitor of CYP3A4
